Source: PubChem BioAssay AID504832 (National Center for Advancing Translational Sciences (NCATS), 2011)
About 18,000 (5.8%) of roughly 310,000 compounds were called active. Inconclusive means that the source gave no clear call. Such entries were picked first, then a sample of the others. The call rests on the fitted dose curve; in most records, active means well fitted inhibition curve with a large enough effect; inconclusive means small, poorly fitted or top-dose-only effect, or another doubt; inactive means no such curve, though single readings can be large or run the other way. No potency is given beside an inconclusive call; the fits are too rough.

Experiment: Primary qHTS for delayed death inhibitors of the malarial parasite plastid, 48 hour incubation
Settings: P. falciparum luciferase growth in erythrocytes; series mostly up to 28.7 µM; activity change, negative = inhibition: at the top concentration
How it was run: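 Here the parasites carry a stable luciferase gene and grow inside erythrocytes in Albumax-based RPMI medium with compound for one erythrocytic cycle. Activity is scored as loss of luminescent signal.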
On the % scale 0 is the no-effect control and ±100 the full control effect; potency means the concentration at half of the fitted maximal effect; tags describe the fitted curve by direction and shape.

Row | SMILES | Potency | activity change, negative = inhibition
1 | CN(CC(=O)Nc1cccc(F)c1)C(=O)c1ccccc1-n1cnnn1 | inconclusive [inhibitor, single point] | 
2 | NS(=O)(=O)c1ccc(CCNCc2cccnc2)cc1 |  | inactive: -1.03%
3 | CCC(C)C1=CC(=Nc2c(C)n(C)n(-c3ccccc3)c2=O)C=C(C(C)CC)C1=O (stereo not drawn) |  | inactive: -0.391%
4 | Cc1ccc(C(=O)c2ccc(N3CCOCC3)c(F)c2)cc1 |  | inactive: 87.4%
5 | CNC(=O)c1cccc(NC(=O)c2ccccc2OCc2ccccc2)c1 |  | inactive: -4.97%
6 | COCCNc1nc2c(S(=O)(=O)c3cc(C)ccc3C)nnn2c2ccccc12 | inconclusive [inhibitor, single point] | 
7 | Nc1cc(=O)[nH]c(=O)n1CCc1ccccc1 | inconclusive [inhibitor, full curve, poor fit] | 
8 | COc1ccc(-c2ccc(=O)n(Cc3ccc([N+](=O)[O-])cc3)n2)cc1 |  | inactive: -18%
9 | COc1cccc(NC(=O)CCc2nnc3ccc(N4CCN(c5cccc(OC)c5)CC4)nn23)c1 | inconclusive [inhibitor, single point] | 
10 | Cc1ccc(S(=O)(=O)NCC(=O)NCC2CCCCC2)cc1C |  | inactive: -1.48%
11 | C[C@](O)(CS(=O)(=O)c1ccc(F)cc1)C(=O)Nc1ccc(C#N)c(C(F)(F)F)c1 |  | inactive: -28.7%
12 | COC(=O)c1ccc(CSc2nc(N3CCOCC3)c3c(c2C#N)CC(C)(C)OC3)o1 | active: 8.28 µM | 
13 | CC(=O)N1c2ccc(S(=O)(=O)N3CCC(C(=O)Nc4cc(C)ccn4)CC3)cc2CC1C (stereo not drawn) | inconclusive [inhibitor, partial curve, poor fit] | 
14 | CCN(c1ccc2c(c1)OCO2)S(=O)(=O)c1cc(Br)cc2c1N(C(C)=O)CC2 | inconclusive [inhibitor, partial curve, poor fit] | 
15 | Cc1ccc(C2CC(c3ccc(Br)cc3)=NN2C(=O)CSC2=NN3CCCC(=O)N=C3S2)cc1 (stereo not drawn) | active: 11.7 µM | 
16 | Cc1nc(CC(=O)N/N=C/c2ccc(OCC(=O)O)cc2)cs1 | inconclusive [inhibitor, partial curve, poor fit] | 
17 | COc1cccc(CNC(=S)Nc2cc(C)ccc2C)c1 | inconclusive [inhibitor, single point] | 
18 | O/N=C(/c1ccccc1)c1cc2cc(Br)cc(Br)c2o1 |  | inactive: -6.71%
19 | CCc1nc(CNC(=O)C2CCC(=O)N(Cc3cccc(OC)c3)C2)no1 (stereo not drawn) |  | inactive: 14.8%
20 | O=C(N/N=C/c1cc([N+](=O)[O-])ccc1O)c1cccc2cc[nH]c12 | inconclusive [inhibitor, full curve] | 
21 | Cc1ccc(S(=O)(=O)CCC(=O)Nc2nnc(-c3cccs3)o2)cc1 |  | inactive: -7.54%
22 | CCCC(C)C1(CC)C(=O)NC(=Nc2ccccc2OC)NC1=O (stereo not drawn) |  | inactive: -1.84%
23 | COc1ccc(C2CC(c3cccs3)=NN2c2ccccc2)cc1 (stereo not drawn) | inconclusive [inhibitor, single point] | 
24 | NCCCC[C@H]1CNC(=S)N1CCCCC1CCCCC1 |  | inactive: 22.1%

Row | SMILES | Potency | activity change, negative = inhibition
25 | O=C(NCCCN1CCCC1=O)c1ccc(NS(=O)(=O)c2cccc([N+](=O)[O-])c2)cc1 |  | inactive: 0.0664%
26 | Cc1onc(-c2ccc(Cl)cc2)c1-c1ccnc(SCC(=O)Nc2ccc(C(C)C)cc2)n1 | inconclusive [inhibitor, single point] | 
27 | O=C(O)c1cnn(-c2nc(-c3cccc(F)c3)cs2)c1C(F)(F)F | inconclusive [inhibitor, partial curve, poor fit] | 
28 | Cc1ccc(-c2csc3ncnc(N4CCN(S(=O)(=O)c5cccs5)CC4)c23)cc1 | active: 6.57 µM | 
29 | CCOc1cc2c(cc1OC)C(c1cccc([N+](=O)[O-])c1)NCC2 (stereo not drawn) |  | inactive: -21.3%
30 | CCOc1ccc(N2C(=O)C3C(c4ccc(OC)cc4OC)NC(CCSC)(C(=O)OC)C3C2=O)cc1 (stereo not drawn) | inconclusive [inhibitor, full curve] | 
31 | CCOC(=O)c1c(C)c(C(=O)NCc2ccc3c(c2)OCO3)c(C)n1C | inconclusive [inhibitor, single point] | 
32 | C[C@H](NC(=O)c1nc[nH]c1C(=O)N1CCc2ccccc2C1)C(=O)OCc1ccccc1 |  | inactive: 39.1%
33 | Cc1cc(-c2ccccc2)c2ccc(NC(=O)C(C)(C)C)nc2n1 | inconclusive [inhibitor, single point] | 
34 | O=C(NCCNS(=O)(=O)c1cccc(C(F)(F)F)c1)c1cc(OCC(F)(F)F)ccc1OCC(F)(F)F | inconclusive [inhibitor, full curve, poor fit] | 
35 | CC[N+](C)(CC)CCC[n+]1c(-c2ccccc2)c2cc(N)ccc2c2ccc(N)cc21 | active: 1.85 µM | 
36 | CSc1ccc(CCNC(=O)CN2C(=O)CCSc3ccccc32)cc1 |  | inactive: -15.3%
37 | CN(CC(=O)Nc1cccc(F)c1)C(=O)c1cccnc1Sc1ccccc1Cl | inconclusive [inhibitor, single point] | 
38 | Cn1ncc2c(Nc3ccc(Br)cc3)nc(Nc3ccc(Br)cc3)nc21 | active: 2.08 µM | 
39 | CSc1ncccc1C(=O)NCC12CC3CC(CC(C3)C1)C2 | inconclusive [inhibitor, single point] | 
40 | O=C(Nc1ccccc1N1CCOCC1)c1cc(Br)c(Br)s1 |  | inactive: 83%
41 | O=C(COc1ccccc1)Nc1nnc(S(=O)(=O)N2CCCCC2)s1 | inconclusive [inhibitor, partial curve, poor fit] | 
42 | O=C(/C=C/c1ccccc1)NC1CC2CCCC(C1)N2Cc1ccccc1 (stereo not drawn) | inconclusive [inhibitor, partial curve] | 
43 | C(=N/n1c2ccccc2c2ccccc21)/c1ccco1 |  | inactive: 22%
44 | Cc1nn(Cc2ccccc2Cl)c2sc(C(=O)NCCCn3ccnc3)cc12 | inconclusive [inhibitor, single point] | 
45 | CCN(CC)CCOC(c1ccccc1)c1ccc(C)cc1 (stereo not drawn) | inconclusive [inhibitor, single point] | 
46 | O=C(COc1ccc(Cl)cc1Cl)NC(=S)Nc1ccc(CN2CCOCC2)cc1 |  | inactive: 16.3%
47 | Cc1cccc(C)c1NC1=NCCCCS1 |  | inactive: 10.6%
48 | CN(Cc1ccccc1)C(=O)COC(=O)c1ccc(-n2cnnn2)cc1 | inconclusive [inhibitor, single point] | 
